Results are given in words; binding and its absence hold for the method and conditions named. In cells and extracts the contact can be indirect. Some results given as binding are weak or reduced against the parent protein; the word gives no strength. Where a sequence is shown, tags or fusion partners need not be part of it.
Experiments:
[1] = target: T1, GFP-SNX21(Δ41-49) (human) (UniProt Q969T3); assay: co-IP; GFP-nanotrap precipitation of GFP-tagged constructs from transiently transfected HEK293-T lysates (50 mM Tris-HCl pH 7.4, 0.5% NP40), 1 h at 4°C; western blot for endogenous Htt and septins
T1 sequence: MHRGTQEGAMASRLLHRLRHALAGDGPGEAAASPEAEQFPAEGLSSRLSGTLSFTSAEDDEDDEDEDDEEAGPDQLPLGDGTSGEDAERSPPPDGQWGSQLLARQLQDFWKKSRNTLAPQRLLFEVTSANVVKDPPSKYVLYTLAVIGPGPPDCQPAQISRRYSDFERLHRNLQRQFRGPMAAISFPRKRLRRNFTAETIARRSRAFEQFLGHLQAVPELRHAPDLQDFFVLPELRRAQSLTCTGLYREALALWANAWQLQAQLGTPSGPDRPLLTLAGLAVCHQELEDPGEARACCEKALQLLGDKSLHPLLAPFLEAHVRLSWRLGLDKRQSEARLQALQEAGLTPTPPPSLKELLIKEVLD

Protein sequences, listed by entry. Tags and fused reporters are not part of them.
UniProt P42858: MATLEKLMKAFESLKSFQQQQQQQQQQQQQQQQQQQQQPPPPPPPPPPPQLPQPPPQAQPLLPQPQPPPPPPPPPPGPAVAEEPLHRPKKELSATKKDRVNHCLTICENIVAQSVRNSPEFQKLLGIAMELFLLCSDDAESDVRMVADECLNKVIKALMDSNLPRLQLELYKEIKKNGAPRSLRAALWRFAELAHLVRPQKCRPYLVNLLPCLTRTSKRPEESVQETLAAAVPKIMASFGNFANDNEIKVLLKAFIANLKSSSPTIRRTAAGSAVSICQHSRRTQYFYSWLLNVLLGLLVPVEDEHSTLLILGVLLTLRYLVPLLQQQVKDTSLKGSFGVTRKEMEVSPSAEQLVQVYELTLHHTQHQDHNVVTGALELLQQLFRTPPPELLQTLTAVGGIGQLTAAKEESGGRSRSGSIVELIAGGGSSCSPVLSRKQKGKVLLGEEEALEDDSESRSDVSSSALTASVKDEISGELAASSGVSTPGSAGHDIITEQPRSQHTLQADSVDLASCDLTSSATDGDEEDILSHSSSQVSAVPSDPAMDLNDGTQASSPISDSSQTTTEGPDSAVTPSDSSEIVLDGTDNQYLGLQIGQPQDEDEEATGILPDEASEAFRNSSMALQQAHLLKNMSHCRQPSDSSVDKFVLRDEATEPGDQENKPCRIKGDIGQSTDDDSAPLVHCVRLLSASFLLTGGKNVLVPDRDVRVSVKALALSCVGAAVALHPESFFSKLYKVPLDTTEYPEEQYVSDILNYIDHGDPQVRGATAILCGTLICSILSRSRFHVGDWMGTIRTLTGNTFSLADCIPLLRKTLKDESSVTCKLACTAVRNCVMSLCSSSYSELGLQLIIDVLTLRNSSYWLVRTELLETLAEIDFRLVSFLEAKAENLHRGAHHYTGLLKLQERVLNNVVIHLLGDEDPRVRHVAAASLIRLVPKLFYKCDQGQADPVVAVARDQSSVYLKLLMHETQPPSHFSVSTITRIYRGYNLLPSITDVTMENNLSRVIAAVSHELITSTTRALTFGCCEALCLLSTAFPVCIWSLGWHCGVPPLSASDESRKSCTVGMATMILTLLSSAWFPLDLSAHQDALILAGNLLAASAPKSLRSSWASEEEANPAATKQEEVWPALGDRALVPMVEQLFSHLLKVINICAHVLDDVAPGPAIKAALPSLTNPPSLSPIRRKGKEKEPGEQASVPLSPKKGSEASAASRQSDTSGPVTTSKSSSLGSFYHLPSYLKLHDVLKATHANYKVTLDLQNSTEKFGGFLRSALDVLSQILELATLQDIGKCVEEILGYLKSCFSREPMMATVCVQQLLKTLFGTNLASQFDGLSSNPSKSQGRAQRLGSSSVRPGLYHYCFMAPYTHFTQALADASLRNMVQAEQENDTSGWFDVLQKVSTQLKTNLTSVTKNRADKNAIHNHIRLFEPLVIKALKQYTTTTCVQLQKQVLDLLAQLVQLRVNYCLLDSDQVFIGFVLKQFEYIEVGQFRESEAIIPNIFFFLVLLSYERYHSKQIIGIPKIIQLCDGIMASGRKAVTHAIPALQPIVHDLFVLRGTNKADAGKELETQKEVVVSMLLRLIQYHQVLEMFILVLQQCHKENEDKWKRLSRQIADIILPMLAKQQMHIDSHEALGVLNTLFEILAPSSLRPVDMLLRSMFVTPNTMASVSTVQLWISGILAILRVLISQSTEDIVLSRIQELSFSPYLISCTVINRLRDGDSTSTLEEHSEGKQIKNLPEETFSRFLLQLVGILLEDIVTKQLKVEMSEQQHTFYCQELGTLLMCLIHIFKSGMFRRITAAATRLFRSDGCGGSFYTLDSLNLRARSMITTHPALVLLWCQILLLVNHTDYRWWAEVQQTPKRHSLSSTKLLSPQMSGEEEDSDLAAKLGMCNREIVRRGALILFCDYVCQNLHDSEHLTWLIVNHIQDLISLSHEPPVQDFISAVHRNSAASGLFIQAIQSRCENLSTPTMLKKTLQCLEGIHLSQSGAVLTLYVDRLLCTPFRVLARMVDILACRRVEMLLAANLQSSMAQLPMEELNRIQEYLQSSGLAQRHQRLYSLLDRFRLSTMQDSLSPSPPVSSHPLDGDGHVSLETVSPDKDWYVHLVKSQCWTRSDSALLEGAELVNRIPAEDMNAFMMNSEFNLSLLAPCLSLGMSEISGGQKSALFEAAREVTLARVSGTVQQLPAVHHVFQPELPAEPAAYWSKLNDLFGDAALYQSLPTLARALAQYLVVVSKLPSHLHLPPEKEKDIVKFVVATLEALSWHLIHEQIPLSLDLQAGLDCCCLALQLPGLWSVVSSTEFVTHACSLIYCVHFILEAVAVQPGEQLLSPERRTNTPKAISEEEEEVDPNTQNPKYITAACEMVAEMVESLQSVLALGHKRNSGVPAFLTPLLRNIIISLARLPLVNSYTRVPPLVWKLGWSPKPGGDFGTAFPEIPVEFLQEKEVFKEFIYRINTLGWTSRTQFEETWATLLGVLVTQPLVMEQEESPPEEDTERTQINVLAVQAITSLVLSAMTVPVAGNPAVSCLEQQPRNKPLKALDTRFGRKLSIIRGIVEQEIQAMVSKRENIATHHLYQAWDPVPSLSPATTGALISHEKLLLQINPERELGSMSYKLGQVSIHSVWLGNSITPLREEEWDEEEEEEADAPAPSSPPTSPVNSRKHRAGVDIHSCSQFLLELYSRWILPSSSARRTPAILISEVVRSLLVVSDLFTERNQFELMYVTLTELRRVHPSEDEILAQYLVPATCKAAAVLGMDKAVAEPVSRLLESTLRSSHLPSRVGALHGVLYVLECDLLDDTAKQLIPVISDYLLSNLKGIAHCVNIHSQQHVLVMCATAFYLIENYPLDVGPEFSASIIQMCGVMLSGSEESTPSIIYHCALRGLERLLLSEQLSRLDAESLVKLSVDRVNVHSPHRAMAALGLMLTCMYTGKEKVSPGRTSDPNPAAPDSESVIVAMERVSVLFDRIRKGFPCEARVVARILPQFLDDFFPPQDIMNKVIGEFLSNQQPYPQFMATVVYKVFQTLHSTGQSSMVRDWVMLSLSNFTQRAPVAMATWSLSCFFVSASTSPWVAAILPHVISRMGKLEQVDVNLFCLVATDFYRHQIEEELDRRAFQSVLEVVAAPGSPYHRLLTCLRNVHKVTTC

GFP-SNX21(L363A) (human) = target: T2, GFP-SNX21(L363A) (human) (UniProt Q969T3); assay: as above
T2 sequence: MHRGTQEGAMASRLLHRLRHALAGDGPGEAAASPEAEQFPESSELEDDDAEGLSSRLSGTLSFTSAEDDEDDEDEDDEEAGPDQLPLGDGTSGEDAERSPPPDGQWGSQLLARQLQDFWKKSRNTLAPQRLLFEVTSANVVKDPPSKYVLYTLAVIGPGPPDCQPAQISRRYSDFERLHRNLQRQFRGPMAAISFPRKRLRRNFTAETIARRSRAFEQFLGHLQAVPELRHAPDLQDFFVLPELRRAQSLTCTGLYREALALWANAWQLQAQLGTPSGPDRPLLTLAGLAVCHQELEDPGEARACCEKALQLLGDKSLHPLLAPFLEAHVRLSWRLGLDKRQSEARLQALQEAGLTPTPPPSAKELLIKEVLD

huntingtin (Htt), endogenous (from UniProt P42858 1-3142)
binding [1]: no binding | binding (GFP-SNX21(L363A) (human)): binds

— article PMC6140323
